Assay results from PubChem BioAssay AID624417 (National Center for Advancing Translational Sciences (NCATS), 2012).
In all, about 410,000 compounds went through this assay and about 6,400 (1.6%) were called active. This list was built around the results that the source calls inconclusive (neither active nor inactive); the mix of calls is not that of the screen. Calls come from the whole dose curve; as a rule, active = well fitted inhibition curve with a large enough effect; inconclusive = small, poorly fitted or top-dose-only effect; inactive = no such curve, though single readings can be large or run the other way. No potency is given beside an inconclusive call; the fits are too rough.

molecular target: Glucagon-like peptide 1 receptor (Homo sapiens) (UniProt P43220); assay: qHTS of GLP-1 Receptor Inverse Agonists (Inhibition Mode); conditions: HEK293 GLP-1R CRE-luciferase, luminescence, 24 h, GLP-1R form is constitutively active; series mostly up to 38.3 µM; note: nearly all actives have a fitted effect of over 55% in size
UniProt P43220, sequence (P43220 whole entry, looked up): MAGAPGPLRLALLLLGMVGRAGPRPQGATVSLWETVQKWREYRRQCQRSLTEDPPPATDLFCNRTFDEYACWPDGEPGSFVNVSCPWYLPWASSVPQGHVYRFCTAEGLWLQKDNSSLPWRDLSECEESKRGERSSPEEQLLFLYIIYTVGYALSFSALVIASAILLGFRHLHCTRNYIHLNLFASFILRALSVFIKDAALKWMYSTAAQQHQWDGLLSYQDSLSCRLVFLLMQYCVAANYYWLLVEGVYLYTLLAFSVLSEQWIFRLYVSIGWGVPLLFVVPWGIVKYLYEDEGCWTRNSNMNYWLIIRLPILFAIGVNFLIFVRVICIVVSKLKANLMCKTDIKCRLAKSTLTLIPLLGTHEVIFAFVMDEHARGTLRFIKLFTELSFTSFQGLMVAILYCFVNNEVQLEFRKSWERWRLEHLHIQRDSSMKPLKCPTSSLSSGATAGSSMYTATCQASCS
In short: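 GLP-1R inverse agonism mode: basal reporter luminescence in engineered HEK293 cells measured after one day of compound exposure at 37 deg C, with a 12 min room-temperature detection step.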
Potency is the fitted concentration of half-maximal effect; tags give direction and shape of the fitted curve.

Question: How did the Potency turn out when `CC(C)Oc1ccc(CNC(=O)Cn2nc(N3CCN(c4ccccc4)CC3)ccc2=O)cc1` was run?
Answer: inactive

Question: With `Cc1cc2nc(CCN(C(=S)NCC(C)C)C3CCCC3)[nH]c2cc1C` as the compound, how does the Potency read?
Answer: inconclusive [inhibitor, partial curve, poor fit]

Question: With `Cc1ccc(CSc2nc(-c3ccccc3C)nc3c2Cc2c(CO)cnc(C)c2O3)cc1` as the compound, how does the Potency read?
Answer: inconclusive [inhibitor, single point]

Question: How did the Potency turn out when `CCc1ccc(NCc2cc3ccc(OC)cc3n(CC(=O)Nc3ccc(C)c(Cl)c3)c2=O)cc1` was run?
Answer: inactive

Question: `Cc1ccc(-c2cc(C(F)F)nc(NCc3cccnc3)n2)cc1` was tested. Which Potency did it give?
Answer: inconclusive [inhibitor, single point]

Question: Which Potency does the source give for `O=C(O)Cc1cn(Cc2cccc(Cl)c2)c2ccccc12` here?
Answer: inactive

Question: For `Cn1c(N)c(-c2ccccc2)c2ccc([N+](=O)[O-])cc2c1=O`, which Potency is on record?
Answer: inactive

Question: Which Potency does the source give for `COc1cc(OC)c(OC)cc1CNCCCSc1nnnn1C` here?
Answer: inactive

Question: Which Potency does the source give for `CCc1ccc(OCc2cc(=O)n3cc(C)sc3n2)cc1` here?
Answer: inactive

Question: For `COc1ccccc1NC(=S)N/N=C/c1ccc(O)cc1`, which Potency is on record?
Answer: inconclusive [inhibitor, single point]

Question: `COc1ccc(CCNC(=S)N2CCC(Cc3ccccc3)CC2)cc1OC` was tested. Which Potency did it give?
Answer: inactive

Question: For `Cc1ccc(C(=O)NCc2ccco2)cc1Br`, which Potency is on record?
Answer: inactive

Question: For `CN(C)S(=O)(=O)N1CCc2ccc(NC(=O)c3ccc(C(F)(F)F)cc3)cc2C1`, which Potency is on record?
Answer: inconclusive [inhibitor, partial curve, poor fit]

Question: How did the Potency turn out when `COc1ccccc1N(CC(O)CN1CCCCC1)S(=O)(=O)c1ccc(C)cc1` (stereo unspecified) was run?
Answer: inconclusive [inhibitor, partial curve, poor fit]

Question: `COc1ccccc1COC(=O)CN1C(=O)NC2(CCCCC2C)C1=O` (stereo unspecified) was tested. Which Potency did it give?
Answer: inconclusive [inhibitor, single point]

Question: `CCCOc1ccc(CNC(=O)CN2C(=O)c3cccnc3Oc3ccc(C)cc32)cc1` was tested. Which Potency did it give?
Answer: inconclusive [inhibitor, partial curve, poor fit]

Question: With `CN(C)c1ccc(NC(=O)C2CCCN(S(=O)(=O)c3ccccc3)C2)cc1` (stereo unspecified) as the compound, how does the Potency read?
Answer: inconclusive [inhibitor, full curve, poor fit]

Question: Which Potency does the source give for `CC(C)CNC(=O)COC(=O)c1cc(S(=O)(=O)N(C)C)ccc1N1CCCC1` here?
Answer: inconclusive [inhibitor, single point]

Question: For `COc1ccc(S(=O)(=O)NCc2ccc(C(=O)N3CCN(Cc4ccccc4)CC3)cc2)cc1`, which Potency is on record?
Answer: inconclusive [inhibitor, single point]

Question: For `CC(O)c1c(OCc2ccccc2)ncnc1OCc1ccccc1` (stereo unspecified), which Potency is on record?
Answer: inconclusive [inhibitor, full curve, poor fit]

Question: For `Cc1ccc(S(=O)(=O)N2CCN(c3nc(CN4CCCC4)nc4sc(C)c(C)c34)CC2)cc1`, which Potency is on record?
Answer: inconclusive [inhibitor, single point]

Question: Which Potency does the source give for `N#Cc1c(NC(=S)NC(=O)C2CCCC2)sc2c1CCCCC2` here?
Answer: inconclusive [inhibitor, full curve, poor fit]

Question: How did the Potency turn out when `CCc1cccc(NC(=O)c2c(C)oc3nc(C)nc(N4CCCC4)c23)c1` was run?
Answer: inactive

Question: `COc1cc(NC(=O)CCCNC(=O)Cn2cnc3sc4c(c3c2=O)CCCC4)cc(OC)c1OC` was tested. Which Potency did it give?
Answer: inconclusive [inhibitor, single point]

Question: Which Potency does the source give for `COc1ccc(-c2noc(CCC(=O)N3CCN(c4ccccc4C)CC3)n2)cc1` here?
Answer: inconclusive [inhibitor, single point]

Question: For `NS(=O)(=O)c1ccc(Oc2ccc(S(N)(=O)=O)cc2)cc1`, which Potency is on record?
Answer: inactive

Question: Which Potency does the source give for `COc1ccc(C(=O)CSc2cc(C)[nH]c(=O)n2)cc1` here?
Answer: inactive

Question: With `CCc1ncc(C(O)c2ccc(Cl)cc2)n1Cc1ccccc1` (stereo unspecified) as the compound, how does the Potency read?
Answer: active: 8.91 µM

Question: For `COc1ccc(NC(=O)c2cc(-c3cc(F)ccc3OC(C)C)n[nH]2)c(C)c1`, which Potency is on record?
Answer: inconclusive [inhibitor, partial curve, poor fit]

Question: `COc1cccc(NC(=S)N2CCN(C(c3ccccc3)c3ccccc3)CC2)c1` was tested. Which Potency did it give?
Answer: active: 10 µM

Question: Which Potency does the source give for `COc1ccc(CCN2CCCC(CN(C)Cc3cc(Cl)c(O)c(OC)c3)C2)cc1` (stereo unspecified) here?
Answer: inconclusive [inhibitor, single point]

Question: How did the Potency turn out when `O=C(N/N=C/c1ccccc1)C(=O)N/N=C/c1ccccc1` was run?
Answer: inactive

Question: For `Cc1ccc(C(C)NC(=O)c2ccc3c(c2)OCCO3)cc1C` (stereo unspecified), which Potency is on record?
Answer: inconclusive [inhibitor, partial curve, poor fit]

Question: How did the Potency turn out when `CCN(CC)C(=O)CSc1nnc(-c2cccnc2)n1CCc1ccccc1` was run?
Answer: inconclusive [inhibitor, single point]

Question: With `COc1ccccc1N1CCN(CC(=O)N2N=CCC2c2ccccc2)CC1` (stereo unspecified) as the compound, how does the Potency read?
Answer: inconclusive [inhibitor, partial curve, poor fit]

Question: How did the Potency turn out when `Cn1c(C(=O)Nc2ccc(OC(F)(F)F)cc2)cc2c(=O)n3ccccc3nc21` was run?
Answer: inactive

Question: With `CC(C)COC(=O)N1CCCCC1c1cc(C(=O)NCc2ccccc2)no1` (stereo unspecified) as the compound, how does the Potency read?
Answer: inconclusive [inhibitor, single point]

Question: How did the Potency turn out when `COCC(=O)N1CCC(Oc2ccc(C(=O)NCc3cc(C(C)C)no3)cc2)CC1` was run?
Answer: inactive

Question: How did the Potency turn out when `c1cncc(-c2nc(NCCCN3CCOCC3)c3c4c(sc3n2)CCC4)c1` was run?
Answer: active: 11.2 µM

Question: With `COC(=O)[C@@]1(Cc2ccc(F)cc2)[C@H]2c3cc(C(=O)N4CCCC4)n(Cc4ccc(C)c(F)c4F)c3C[C@H]2CN1C(=O)c1ccccc1` as the compound, how does the Potency read?
Answer: inconclusive [inhibitor, single point]

Question: Which Potency does the source give for `CCOc1ccccc1NC(=O)c1c(NC(=O)Cc2ccc(OC)cc2)sc2c1CCC2` here?
Answer: inconclusive [inhibitor, single point]

Question: Which Potency does the source give for `O=C(Cn1c(C(=O)N2CCc3ccccc3C2)cc2sccc21)c1ccccc1` here?
Answer: inactive

Question: `Cc1nc(N)[nH]c(=O)c1CCCNc1ccc(CCCCC2(CCl)OCCO2)cc1` was tested. Which Potency did it give?
Answer: inconclusive [inhibitor, single point]

Question: For `CCCOc1ccc(C(=O)NCC(c2cccs2)N(C)C)cc1OC` (stereo unspecified), which Potency is on record?
Answer: inconclusive [inhibitor, partial curve, poor fit]

Question: With `CSc1ccccc1NC(=O)CN(C)Cc1cccc(Cl)c1` as the compound, how does the Potency read?
Answer: inconclusive [inhibitor, partial curve, poor fit]

Question: `Cc1ccc(OCC(=O)Nc2cccc(C(=O)OCc3cc(=O)n4c(C)csc4n3)c2)cc1` was tested. Which Potency did it give?
Answer: inconclusive [inhibitor, single point]

Question: With `CC1=C(C(=O)OC2CCCC2)C(c2ccccc2C(F)(F)F)CC(=O)N1` (stereo unspecified) as the compound, how does the Potency read?
Answer: inconclusive [inhibitor, single point]

Question: `CC1CCCN(c2ncnc3c2cnn3-c2ccc(Cl)cc2)C1` (stereo unspecified) was tested. Which Potency did it give?
Answer: inactive

Question: With `O=C(NCCO)N1c2ccccc2Sc2ccccc21` as the compound, how does the Potency read?
Answer: inactive

Question: Which Potency does the source give for `Cc1ccc(-c2cn(-c3ccccc3)c(SCC(N)=O)n2)cc1C` here?
Answer: inconclusive [inhibitor, partial curve, poor fit]

Question: `COc1cccc(C2CCCN2Cc2nc(CCC(C)C)no2)c1` (stereo unspecified) was tested. Which Potency did it give?
Answer: inconclusive [inhibitor, single point]

Question: With `O=C(c1ccc(Br)c(S(=O)(=O)N2CCOCC2)c1)N1CCN(C/C=C/c2ccccc2)CC1` as the compound, how does the Potency read?
Answer: inconclusive [inhibitor, single point]

Question: `COc1ccc(CNC(=O)C(OC(=O)c2cccs2)C(C)C)cc1` (stereo unspecified) was tested. Which Potency did it give?
Answer: inconclusive [inhibitor, single point]

Question: `Cc1ccc(NC(=O)COC(=O)c2ccc3c(c2)OCO3)cc1S(=O)(=O)N1CCCCC1` was tested. Which Potency did it give?
Answer: inconclusive [inhibitor, single point]

Question: Which Potency does the source give for `CCC1Sc2ccc(S(=O)(=O)CCC(=O)Nc3ccc(OC(F)(F)F)cc3)cc2NC1=O` (stereo unspecified) here?
Answer: inconclusive [inhibitor, partial curve, poor fit]

Question: For `CCCN(CCC)c1ccc(CC(=O)NC(C)Cc2ccccc2)cc1` (stereo unspecified), which Potency is on record?
Answer: inconclusive [inhibitor, partial curve, poor fit]

Question: Which Potency does the source give for `O=[N+]([O-])c1ccccc1S(=O)(=O)Nc1cccc2cccnc12` here?
Answer: inconclusive [inhibitor, single point]

Question: For `C=CC(=O)Nc1cccc(Oc2ccnc(Nc3ccc(N4CCN(C)CC4)cc3)n2)c1`, which Potency is on record?
Answer: inconclusive [inhibitor, single point]

Question: For `Cn1c(SCc2ccccc2)nc2ccsc2c1=O`, which Potency is on record?
Answer: inconclusive [inhibitor, single point]

Question: With `COc1ccc(/C=N/n2c(N)c(S(=O)(=O)c3cccs3)c3nc4ccccc4nc32)cc1OC` as the compound, how does the Potency read?
Answer: inconclusive [inhibitor, partial curve, poor fit]

Question: `O=S(=O)(c1ccccc1)N1N=C(c2cccs2)CC1c1ccc(F)cc1` (stereo unspecified) was tested. Which Potency did it give?
Answer: inconclusive [inhibitor, single point]

Question: For `COc1ccc(S(=O)(=O)N(CC(=O)Nc2ccc3c(c2)OCO3)c2ccccc2OC)cc1`, which Potency is on record?
Answer: inconclusive [inhibitor, partial curve, poor fit]

Question: With `CCOc1ccc(N(Cc2ccc(OC)cc2)C(=O)c2ccco2)cc1` as the compound, how does the Potency read?
Answer: inconclusive [inhibitor, partial curve, poor fit]

Question: How did the Potency turn out when `COc1ccc(NC(=O)CN(C)CC(=O)Nc2ccc(C)c(S(=O)(=O)N3CCCCC3)c2)cc1` was run?
Answer: inconclusive [inhibitor, single point]

Question: How did the Potency turn out when `COc1cccc(C(=O)N/N=C(/c2ccccc2)c2ccccn2)c1` was run?
Answer: active: 7.94 µM

Question: With `CCNC(=O)C1(C)CCCN(C(=O)c2cc(-c3ccccc3)cs2)C1` (stereo unspecified) as the compound, how does the Potency read?
Answer: inactive
